In all, about 340,000 compounds went through this assay and about 12,000 (3.5%) were called active. Inconclusive means that the source gave no clear call. Such entries were picked first, then a sample of the others. The call rests on the fitted dose curve; in most records, active means well fitted inhibition curve with a large enough effect; inconclusive means small, poorly fitted or top-dose-only effect, or another doubt; inactive means no such curve, though single readings can be large or run the other way. Potencies of inconclusive entries are left out as doubtful fits.
Test: qHTS Assay for Inhibitors of Hepatitis C Virus (HCV)
Settings: Huh7.5.1 HCVcc-Cre (HCVcc is cell-culture hepatitis C virus) infection, luciferase reporter, 44 h; activity change, negative = inhibition: at 41.8 µM (top of the series) unless noted
Summary of the method: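 Infectious HCVcc-Cre (~0.5 moi) was added to cells just after compound, with cells seeded 4 h earlier at 1,000 per well. Luciferase activity after 44 h culture reported infection; substrate was incubated 15 min at room temperature before reading.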
With `CCN(Cc1ccccc1)C(=O)C1CCN(Cc2ccc(SC)cc2)CC1` the Potency was inconclusive [inhibitor, single point].
In the case of `Cn1c(CO)cnc1SCc1ccc([N+](=O)[O-])cc1`, the Potency is reported as inconclusive [inhibitor, single point].
With `CC(=O)Nc1ccc(S(=O)(=O)N2CCN(C(=O)c3ccco3)CC2)cc1` the “activity change, negative = inhibition” value was inactive: -1.63%.
For `CCNc1ccc(C(=O)OCC(=O)NC(C)c2ccccc2)cc1[N+](=O)[O-]` (stereo not drawn), the Potency was inconclusive [inhibitor, single point].
In the case of `COc1ccc2cc(C(c3nnnn3Cc3ccccc3)N3CCCCCC3)c(=O)[nH]c2c1` (stereo not drawn), the Potency is reported as inconclusive [inhibitor, partial curve].
For `CCn1c(-c2ccccc2O)n[nH]c1=S`, the “activity change, negative = inhibition” value was inactive: 8.98%.
In the case of `Cc1cc(NC(=O)CCC(=O)N(c2ccccc2)C(C(=O)NC2CCCC2)c2cccs2)no1` (stereo not drawn), the Potency is reported as “inactive”.
In the case of `CCOc1ncccc1C(=O)OCC(=O)Nc1cccc(S(=O)(=O)N2CCCCCC2)c1`, the “activity change, negative = inhibition” value is reported as inactive: -5.14%.
With `CCOC(=O)C1(CCOc2ccccc2)CCN(C2Cc3ccccc3C2)CC1` the Potency was inconclusive [inhibitor, single point].
With `CCC(C)NC(=O)Cn1nc(Cc2ccncc2)c2ccccc2c1=O` (stereo not drawn) the “activity change, negative = inhibition” value was inactive: 7.96%.
For `CCC(C)NS(=O)(=O)c1ccc(-c2csnn2)s1` (stereo not drawn), the “activity change, negative = inhibition” value was inactive: 10.3%.
With `COc1ccccc1NC(=S)Nc1cccc2cnccc12` the Potency was active: 10 µM.
With `O=C(COc1ccccc1[N+](=O)[O-])N/N=C/C=C/c1ccco1` the “activity change, negative = inhibition” value was inactive: -17.5%.
With `Cn1c(=O)[nH]c(=O)c2c1nc(SCC(=O)Nc1ccccc1)n2Cc1ccccc1` the Potency was active: 11.2 µM.
For `COc1ccc(CNC(=O)c2ccc3c(=O)n4c(nc3c2)CCCCC4)cc1OC`, the Potency was inconclusive [inhibitor, full curve].
In the case of `CCNc1nc2c(c(=O)n(Cc3ccccc3)c(=O)n2C)n1Cc1ccccc1`, the “activity change, negative = inhibition” value is reported as inactive: 1.59%.
With `Cc1sc(NC(=O)Cc2ccc3c(c2)OCO3)nc1-c1ccc2c(c1)CCN2C(=O)c1cccc(F)c1` the Potency was active: 3.98 µM.
In the case of `CC(=O)c1ccc(C(=O)N(C)C2CCCN(Cc3ccccc3F)C2)s1` (stereo not drawn), the “activity change, negative = inhibition” value is reported as inactive: 5.43%.
In the case of `CCC(=O)Nc1nnc(S(=O)(=O)N(CC)c2ccc(Cl)cc2)s1`, the “activity change, negative = inhibition” value is reported as inactive: 7.66%.
In the case of `Cc1onc(-c2ccccc2Cl)c1C(=O)N(Cc1ccc(N(C)C)cc1)C(C)C`, the Potency is reported as inconclusive [inhibitor, single point].
In the case of `NC(=S)N/N=C/c1cn(-c2ccccc2)nc1-c1cccnc1`, the Potency is reported as inconclusive [inhibitor, single point].
With `COc1ccc(CC(=O)OCC(=O)NNC(=O)c2ccccc2)cc1` the “activity change, negative = inhibition” value was inactive: 4.85%.
For `CCn1c2ccccc2c2cc(/C=N/NC(=O)c3ccccc3C)ccc21`, the Potency was active: 5.62 µM.
On the % scale 0 is the no-effect control and ±100 the full control effect; potency means the concentration at half of the fitted maximal effect; tags describe the fitted curve by direction and shape.
